{
  "source": "PubChem BioAssay AID1347073",
  "about": "(National Center for Advancing Translational Sciences (NCATS), 2019)",
  "note": "In all, about 45,000 compounds went through this assay and about 200 (0.44%) were called active. Roughly 7% stayed inconclusive and do not appear here. The call rests on the fitted dose curve; in most records, active means well fitted activation curve with a large enough effect; inconclusive means small, poorly fitted or top-dose-only effect; inactive means no such curve, though single readings can be large or run the other way. This is one part of the list. Potency means the concentration at half of the fitted maximal effect.",
  "data": [
    {"experiment": "qHTS of TDP-43 Inhibitors: NCGC Sytravon Library Screen; further: nearly all actives have a fitted effect of over 55% in size; on growth rescue (activation): 0% is about no effect", "conditions": "yeast TDP-43 toxicity rescue, BacTiter-Glo growth, 24 h; series mostly up to 46.1 µM; growth rescue (activation): at the top concentration", "summary_of_the_method": "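TDP-43-expressing yeast, pregrown in raffinose, seeded at OD600 0.02 in galactose medium with compound for 24 hr at 30 deg C. Growth read by BacTiter-Glo luminescence, so rescue of toxicity appears as activation.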", "values": [
      {"smiles": "COc1cccc(C(C)(O)c2nc(-c3cncnc3)cs2)c1", "note": "(stereo unspecified)", "growth rescue (activation)": "inactive: 16.9%"},
      {"smiles": "COC(=O)COc1ccc(S(=O)(=O)N2CCCCC2)cc1[N+](=O)[O-]", "growth rescue (activation)": "inactive: 9.27%"},
      {"smiles": "O=C(NC(=S)NCC1CCCO1)c1ccccc1Br", "note": "(stereo unspecified)", "growth rescue (activation)": "inactive: -1.89%"},
      {"smiles": "O=C(COC(=O)c1ccc[n+]([O-])c1)Nc1ccccc1OC(F)F", "growth rescue (activation)": "inactive: -3.76%"},
      {"smiles": "O=C(Nc1ccc(Cl)cc1C(=O)N1CCCC1)c1cccc([N+](=O)[O-])c1", "growth rescue (activation)": "inactive: -8.6%"},
      {"smiles": "CCCOc1ccc(N2C(=O)CC(NNC(=O)c3ccc(COc4ccccc4)o3)C2=O)cc1", "note": "(stereo unspecified)", "growth rescue (activation)": "inactive: 12.8%"},
      {"smiles": "CCN(CC)CCn1c(N)nc2ccccc21", "growth rescue (activation)": "inactive: 8.51%"},
      {"smiles": "Cc1cccc(C)c1NC(=O)CN(C)CC(=O)N1CC(=O)Nc2ccccc21", "growth rescue (activation)": "inactive: 5.06%"},
      {"smiles": "Cc1cccc(C)c1NC(=O)Cn1c(=O)n(CCC(=O)NCc2ccc3c(c2)OCO3)c(=O)c2sccc21", "growth rescue (activation)": "inactive: 12.9%"},
      {"smiles": "COc1ccc(-c2c(C(F)(F)F)oc3c(CN4CCN(C)CC4)c(O)ccc3c2=O)cc1", "growth rescue (activation)": "inactive: -18.2%"},
      {"smiles": "Cc1ccccc1OCc1nnc(SCc2nc3ccccc3c(=O)[nH]2)n1C", "growth rescue (activation)": "inactive: -5.1%"},
      {"smiles": "COC(=O)[C@@H](NC(=O)NC1CCCCC1C)C(C)C", "note": "(stereo partly specified)", "growth rescue (activation)": "inactive: 11.2%"},
      {"smiles": "Cc1ccc([N+](=O)[O-])cc1S(=O)(=O)Nc1ccccn1", "growth rescue (activation)": "inactive: 4.74%"},
      {"smiles": "CCOC(=O)Cc1csc(NC(=S)NC(=O)c2ccc([N+](=O)[O-])cc2)n1", "growth rescue (activation)": "inactive: 6.88%"},
      {"smiles": "CC(C(=O)Nc1ncc2c(n1)CC(C)(C)CC2=O)N1C(=O)c2ccccc2C1=O", "note": "(stereo unspecified)", "growth rescue (activation)": "inactive: -18.7%"},
      {"smiles": "CC(C)c1ccc(C2NC(=O)c3ccccc3O2)cc1", "note": "(stereo unspecified)", "growth rescue (activation)": "inactive: 16.7%"},
      {"smiles": "O=C(Nc1ccccn1)[C@@H]1CCC(=O)N1C(=O)OCc1ccccc1", "growth rescue (activation)": "inactive: -8.75%"},
      {"smiles": "COCCN(C(=O)CSc1nnc(-c2ccccc2F)n1C)c1c(N)n(Cc2ccccc2)c(=O)[nH]c1=O", "growth rescue (activation)": "inactive: 8.83%"},
      {"smiles": "CN1CCN(CCCCOc2cccc3ccccc23)CC1", "growth rescue (activation)": "inactive: 1.25%"},
      {"smiles": "COCCN(C(=S)Nc1ccc(OC)cc1)C1CCN(C(C)C)CC1", "growth rescue (activation)": "inactive: -0.637%"},
      {"smiles": "Cc1ccc(NC(=O)COC(=O)CN2C(=O)C3CCCCC3C2=O)cc1S(=O)(=O)N1CCOCC1", "note": "(stereo unspecified)", "growth rescue (activation)": "inactive: -17.6%"},
      {"smiles": "Nc1nc(Nc2cccc(F)c2)nc(NCc2ccco2)c1[N+](=O)[O-]", "growth rescue (activation)": "inactive: 20%"},
      {"smiles": "CN(C)c1ccc(/C=N/NC(=O)c2ccccc2)cc1", "growth rescue (activation)": "inactive: -5.95%"},
      {"smiles": "CC(=O)c1ccc(N=C2SCCCN2C(=O)C2CCCC2)cc1", "growth rescue (activation)": "inactive: 8.23%"},
      {"smiles": "COc1ccc(N2CC(C(=O)N3CCN(c4ccccc4OC)CC3)CC2=O)cc1", "note": "(stereo unspecified)", "growth rescue (activation)": "inactive: 9.31%"},
      {"smiles": "CSCCC(C(=O)OCC(=O)c1ccc(C)c(C)c1)N1C(=O)c2ccccc2C1=O", "note": "(stereo unspecified)", "growth rescue (activation)": "inactive: -18.8%"},
      {"smiles": "Cc1nc2nc(C)c(NS(=O)(=O)c3ccc4c(c3)CCCC4)c(=O)n2[nH]1", "growth rescue (activation)": "inactive: -15.1%"},
      {"smiles": "CCOC(=O)C(C(C)=O)c1nc(C)nc2c1nnn2Cc1ccccc1Cl", "note": "(stereo unspecified)", "growth rescue (activation)": "inactive: -12.6%"},
      {"smiles": "Cn1c(NCCc2ccncc2)nc2cc(-c3cccc(C(F)(F)F)c3)sc2c1=O", "growth rescue (activation)": "inactive: 15.8%"},
      {"smiles": "CCOc1ccc(C(=O)Nc2ccc(N3CCN(C)CC3)cc2)cc1[N+](=O)[O-]", "growth rescue (activation)": "inactive: 6.94%"},
      {"smiles": "Cc1ccc(S(=O)(=O)N(CC(=O)NCC2CCCO2)Cc2ccc(F)cc2)cc1", "note": "(stereo unspecified)", "growth rescue (activation)": "inactive: 2.7%"},
      {"smiles": "CC(=O)c1cccc(-c2ccnc3c2CC(C(=O)Nc2cccc(NS(C)(=O)=O)c2)O3)c1", "note": "(stereo unspecified)", "growth rescue (activation)": "inactive: 10.1%"},
      {"smiles": "O=C(COc1ccccc1F)NCc1nc2ccccc2[nH]1", "growth rescue (activation)": "inactive: 2.03%"},
      {"smiles": "N#Cc1nc(Cc2cccc3ccccc23)oc1NCc1ccc2c(c1)OCO2", "Potency": "active: 12.6 µM"},
      {"smiles": "Cc1ccc(NC(=S)N2CCN(C(=O)c3ccccc3)CC2)c(C)c1", "growth rescue (activation)": "inactive: -3.75%"},
      {"smiles": "S=C(Nc1ccccc1)N1CCN(C(=S)c2ccccc2)CC1", "growth rescue (activation)": "inactive: 11.8%"},
      {"smiles": "CC1=NN(c2ccccc2)C(=O)/C1=C\\C=C1\\N(C)c2ccccc2C1(C)C", "growth rescue (activation)": "inactive: 29.5%"},
      {"smiles": "CCN1C(=O)/C(=C\\c2cccn2-c2ccc([N+](=O)[O-])cc2)N(CC)C1=S", "growth rescue (activation)": "inactive: 17%"},
      {"smiles": "Cc1c(C(=O)Nc2ccc(C(=O)Nc3ccccc3)cc2)cccc1[N+](=O)[O-]", "growth rescue (activation)": "inactive: -11.8%"},
      {"smiles": "COc1ccc(-c2nnc(SCC(=O)O)n2Cc2ccccc2)cc1", "growth rescue (activation)": "inactive: 9.24%"},
      {"smiles": "O=C(NC(=Nc1nc2ccccc2o1)NC(=O)c1ccccc1)c1ccccc1", "growth rescue (activation)": "inactive: -8.37%"},
      {"smiles": "Cc1ccccc1NC(=O)C1CCN(S(=O)(=O)c2cccc3nonc23)CC1", "growth rescue (activation)": "inactive: 7.91%"},
      {"smiles": "O=C(c1ccc(F)cc1)C(C(=O)N1CCCCC1)n1ccccc1=O", "note": "(stereo unspecified)", "growth rescue (activation)": "inactive: 14%"},
      {"smiles": "COc1ccc(C)cc1C(=O)CCC(=O)NC1CCCCC1", "growth rescue (activation)": "inactive: 9.66%"},
      {"smiles": "CN(C)CCCOc1ccc(-c2cc3nc(NCc4cccnc4)n(C)c(=O)c3s2)cn1", "growth rescue (activation)": "inactive: 13.8%"},
      {"smiles": "CCCOc1ccc(/C=N/NC(=O)c2ccc3c(c2)OCO3)c(OCCC)c1", "growth rescue (activation)": "inactive: -7.92%"},
      {"smiles": "CCCC(=O)Nc1cccc(NC(=O)c2cccc([N+](=O)[O-])c2C)c1", "growth rescue (activation)": "inactive: 12.1%"},
      {"smiles": "O=C(C1CCN(C2CCN(Cc3ccc4cc(F)ccc4n3)CC2)CC1)N1CCCC1", "growth rescue (activation)": "inactive: -1.16%"},
      {"smiles": "CC(=O)N1c2ccccc2C(=O)C1N(C)c1ccc(C)cc1", "note": "(stereo unspecified)", "growth rescue (activation)": "inactive: 17.2%"},
      {"smiles": "COc1ccc(OC)c(S(=O)(=O)N2Cc3ccccc3CC2C(=O)Nc2ccc(Cl)cc2)c1", "note": "(stereo unspecified)", "growth rescue (activation)": "inactive: 25.7%"},
      {"smiles": "CCN(CC)S(=O)(=O)c1cc(NC(=O)NCCCl)ccc1C", "growth rescue (activation)": "inactive: 32.2%"},
      {"smiles": "CCCc1ccc(-c2csc(NC(=O)Cc3cccs3)n2)cc1", "growth rescue (activation)": "inactive: 1.21%"},
      {"smiles": "CCOc1ccc(S(=O)(=O)NCCC(=O)NC2CCC(C)CC2)cc1", "note": "(stereo unspecified)", "growth rescue (activation)": "inactive: 1.51%"},
      {"smiles": "C=CC[n+]1c(C)csc1Nc1cccc(Br)c1", "growth rescue (activation)": "inactive: 21.2%"},
      {"smiles": "O=C(Cn1cccn1)N1CCCC(N2CCN(c3cccc(C(F)(F)F)c3)CC2)C1", "note": "(stereo unspecified)", "growth rescue (activation)": "inactive: 11.4%"},
      {"smiles": "Cc1ccc(Cl)c(NC(=O)CCl)c1Cl", "growth rescue (activation)": "inactive: 7.72%"},
      {"smiles": "Cc1ccc(NC(=O)C(=O)NCCCN2CC(C(=O)O)CC2=O)cc1", "note": "(stereo unspecified)", "growth rescue (activation)": "inactive: 0.376%"},
      {"smiles": "COc1cccc(CNC(=O)c2oc3ccc4c(c3c2C)C(=O)CC(C)(C)O4)c1OC", "growth rescue (activation)": "inactive: 26.9%"},
      {"smiles": "COc1ccc(CCNC(=O)CN2C(=O)NC(Cc3c[nH]c4ccccc34)C2=O)cc1", "note": "(stereo unspecified)", "growth rescue (activation)": "inactive: 4.25%"},
      {"smiles": "CCOc1ccc(-c2nc(CSc3nnc(N)s3)cs2)cc1", "growth rescue (activation)": "inactive: 14.5%"},
      {"smiles": "Oc1c(C=Nc2ccc(Cl)cn2)sc2ccccc12", "growth rescue (activation)": "inactive: -22.3%"},
      {"smiles": "COc1cc(/C=C/c2ccc3cccc(O)c3n2)cc(Br)c1OC", "growth rescue (activation)": "inactive: 18%"},
      {"smiles": "Cc1onc(-c2c(F)cccc2Cl)c1C(=O)OCC(=O)c1c(N)n(C)c(=O)n(C)c1=O", "growth rescue (activation)": "inactive: 13.4%"},
      {"smiles": "Cc1cc(C)n2cc(CSc3ccccn3)nc2n1", "growth rescue (activation)": "inactive: -5.85%"},
      {"smiles": "NS(=O)(=O)c1ccc(CCNC(=O)CCCn2c(SCC(=O)N3CCCC3)nc3ccsc3c2=O)cc1", "growth rescue (activation)": "inactive: -8.18%"},
      {"smiles": "CC(=O)Nc1ccc(S(=O)(=O)Nc2nc(-c3ccc(C(C)(C)C)cc3)cs2)cc1", "growth rescue (activation)": "inactive: 3.13%"}
    ]}
  ]
}
